{"source": "PubChem BioAssay AID1346428", "about": "(National Center for Advancing Translational Sciences (NCATS), 2018)", "note": "The whole screen tested about 48,000 compounds, of which about 1,200 (2.5%) were called active. Not shown: some 2% with an inconclusive outcome.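 How the source made its calls: active means activation of at least 60% and not above a set upper limit (about 1 call in 100 departs from these limits); inconclusive means activation of 40% to 60%, or above that upper limit; inactive means activation under 40%.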 The list shows a part of the results.", "data": [{"biological_target": "Probable G-protein coupled receptor 32 (Homo sapiens) (UniProt O75388)", "sequence (O75388 whole entry, looked up)": "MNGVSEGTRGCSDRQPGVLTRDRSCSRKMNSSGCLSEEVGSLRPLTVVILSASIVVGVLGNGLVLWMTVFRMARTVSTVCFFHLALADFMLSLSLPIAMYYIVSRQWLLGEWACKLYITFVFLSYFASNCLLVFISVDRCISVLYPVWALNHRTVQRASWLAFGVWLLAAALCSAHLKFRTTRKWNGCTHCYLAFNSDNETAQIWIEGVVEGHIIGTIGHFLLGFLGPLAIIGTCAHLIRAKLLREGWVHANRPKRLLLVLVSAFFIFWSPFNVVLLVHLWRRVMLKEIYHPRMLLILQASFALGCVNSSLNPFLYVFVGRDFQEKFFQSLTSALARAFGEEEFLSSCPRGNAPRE", "assay": "qHTS for Agonists of Human Resolvin D1 Receptor DRV1; further: 0% is about no effect", "settings": "CHO-K1 GPR32 beta-arrestin PathHunter luminescence, 90 min; at 76.9 µM; active compounds read high; zero percent set by DMSO-only wells", "summary_of_the_method": "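Luminescent readout of beta-Gal complementation quantifies ligand-induced beta-arrestin association with GPR32 in CHO-K1 cells; 90 min compound incubation at 37 °C, detection 1 h at room temperature.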", "values": [{"smiles": "O=C(/C=C/c1ccccc1)Nc1nc(-c2cccs2)ns1", "activation": "active: 80.8%"}, {"smiles": "Cc1cc(C)cc(NS(=O)(=O)c2ccc3[nH]cc(C(=O)NCc4ccco4)c(=O)c3c2)c1", "activation": "active: 98.7%"}, {"smiles": "CCCn1ccc2c(OCC(=O)Nc3ccc(C(F)(F)F)cc3)cccc2c1=O", "activation": "inactive: -0.0614%"}, {"smiles": "O=C(Nc1ccc(Cl)c(C(F)(F)F)c1)c1cc2nc(-c3ccc4c(c3)OCO4)cc(C(F)(F)F)n2n1", "activation": "inactive: 3.56%"}, {"smiles": "COc1ccc(NC(=O)CSc2n[nH]c(-c3ccccc3)n2)cc1Cl", "activation": "inactive: 17.1%"}, {"smiles": "O=C(Nc1ccccc1F)c1oc2ccccc2c1NC(=O)C12CC3CC(CC(C3)C1)C2", "activation": "inactive: -5.26%"}, {"smiles": "CCOc1ccccc1C(=O)Nc1cc2c(cc1N1CCCCC1)n(C)c(=O)n2C", "activation": "active: 69.7%"}, {"smiles": "CCC(O)c1nc2ccccc2n1CCOc1cc(C)cc(C)c1", "note": "(stereo not given)", "activation": "inactive: -2.57%"}, {"smiles": "CCOC(=O)c1noc2nc(C)n(CC(=O)Nc3ccc(Br)cc3C)c(=O)c12", "activation": "inactive: 3.61%"}, {"smiles": "CCOc1ccccc1N(CC)C(=O)c1cc2c(=O)n(CC)c3ccccc3c2s1", "activation": "inactive: -26.7%"}, {"smiles": "Cc1cc(Nc2cccc(C(F)(F)F)c2)nc2ccc(NC(=O)c3cncc(Br)c3)cc12", "activation": "inactive: -22.9%"}, {"smiles": "Cc1ccc(CN(C(=O)c2ccc([N+](=O)[O-])cc2)c2ccccn2)cc1", "activation": "inactive: -0.707%"}, {"smiles": "CC1(CN2CCC(n3c(=O)[nH]c4ccccc43)CC2)OCc2ccccc2-n2cccc21", "note": "(stereo not given)", "activation": "inactive: 13.2%"}, {"smiles": "COc1ccc(OC)c(-n2cnc3cc(C(=O)NCCc4ccccc4)ccc32)c1", "activation": "inactive: -7.92%"}, {"smiles": "CC(C)OC(=O)c1c(NC(=O)c2cc3nc(-c4ccccc4)cc(C(F)(F)F)n3n2)sc2c1CCCC2", "activation": "inactive: -19.5%"}, {"smiles": "Cc1ccc(-c2nnc3ccccc3c2C(=O)Nc2cccc(C(F)(F)F)c2)cc1", "activation": "inactive: -4.72%"}, {"smiles": "Cc1ccc(OCC(=O)Nc2ccccc2C(=O)OCc2cc(=O)n3c(C)csc3n2)cc1", "activation": "inactive: 1.35%"}, {"smiles": "CC(C(=O)NCc1ccc(Cl)cc1)n1ccc2cc(S(=O)(=O)N3CCCC3)ccc21", "note": "(stereo not given)", "activation": "inactive: 13.2%"}, {"smiles": "COc1ccc(CCN(C)CCc2ccc(OC)c(OC)c2)cc1OC", "activation": "inactive: 0.0002%"}, {"smiles": "CSc1nnc2c(n1)OC(c1cccc(O)c1Cl)Nc1ccccc1-2", "note": "(stereo not given)", "activation": "inactive: -6.11%"}, {"smiles": "CC1=C(C(=O)Nc2ccc(C)cc2C)C(c2ccc[nH]2)n2ncnc2N1", "note": "(stereo not given)", "activation": "inactive: 9.23%"}, {"smiles": "Cc1nn(C)c2c1c(C(F)(F)F)cc(=O)n2CC(=O)NC(C)(C)C", "activation": "inactive: 13.8%"}, {"smiles": "COc1ccc(CCCc2nnc(SCC(=O)Nc3ccc(Cl)cc3)o2)cc1", "activation": "inactive: -9.94%"}, {"smiles": "CCOc1ccc(OCC)c(NC(=O)c2c(C)nn(-c3ccccc3)c2-n2cccc2)c1", "activation": "inactive: -21.9%"}, {"smiles": "COc1ccc(-c2cc(-c3ccc(F)cc3)nc3c2COc2ccccc2-3)cc1", "activation": "inactive: -1.09%"}, {"smiles": "CCc1ccc(CNC(=O)c2sc3ncnc(N(C)C4CCCCC4)c3c2C)cc1", "activation": "inactive: -17.2%"}, {"smiles": "CCc1ccccc1NC(=O)c1ccc2[nH]c(C)c(C)c2c1", "activation": "inactive: 7.48%"}, {"smiles": "Cc1oc2ncnc(N3CCCCC3)c2c1C(=O)Nc1cccc(F)c1", "activation": "inactive: -29.1%"}, {"smiles": "Cc1ccccc1CN1C(=O)C(O)(CC(=O)c2cccc(Br)c2)c2ccccc21", "note": "(stereo not given)", "activation": "inactive: -15.4%"}, {"smiles": "CCOc1ccccc1C1Nc2ccccc2-c2nnc(SCc3ccccc3)nc2O1", "note": "(stereo not given)", "activation": "inactive: 5.98%"}, {"smiles": "Cc1c(C(=O)NCc2ccccc2)oc2c1-c1[nH]ncc1CC2", "activation": "inactive: -6.13%"}, {"smiles": "COc1ccc(Nc2cc(C(=O)NCCCN(C)C3CCCCC3)c3ccccc3n2)cc1", "activation": "inactive: -23%"}, {"smiles": "CCOc1ccc(-c2nnc(SCC(=O)NCCc3ccccc3)nc2-c2ccc(OCC)c(OC)c2)cc1OC", "activation": "inactive: -18.1%"}, {"smiles": "CCCN(C(=O)Cn1nc(Cc2ccncc2)c2ccccc2c1=O)c1ccccc1C", "activation": "inactive: -11.2%"}, {"smiles": "Cc1cc(O)c(CN2CCN(c3ccc(F)cc3)CC2)c2oc(=O)cc(C)c12", "activation": "inactive: -15%"}, {"smiles": "Cc1cccc(C(=O)Nc2nnc(S(=O)(=O)N3c4ccccc4CC3C)s2)c1", "note": "(stereo not given)", "activation": "inactive: 27.9%"}, {"smiles": "COCCCn1c(=N)c(C(=O)NC2CCCC2)cc2c(=O)n3cc(C)ccc3nc21", "activation": "inactive: -0.0945%"}, {"smiles": "COc1ccc(Br)cc1CNC(=O)c1ccc(-n2c(C)cc3c2CCC(C)C3)cc1", "note": "(stereo not given)", "activation": "inactive: -18.9%"}, {"smiles": "CCN(CC)C(=O)C1=C(C)Nc2nc3ccccc3n2C1c1ccc(Cl)cc1", "note": "(stereo not given)", "activation": "inactive: -7.96%"}, {"smiles": "CSc1ncc(C(=O)Nc2cccc(Cl)c2C)c(-c2ccccc2)n1", "activation": "inactive: 0.0328%"}, {"smiles": "O=C(NCc1ccccn1)c1nn(-c2ccccc2Cl)nc1CO", "activation": "inactive: -4.39%"}, {"smiles": "Cc1ccccc1NC(=O)c1ccc(CNS(=O)(=O)c2ccc3c(c2)C(C)(C)C(=O)N3C)cc1", "activation": "inactive: -13.9%"}, {"smiles": "COc1ccccc1CNC(=O)C(Cc1ccccc1)NS(=O)(=O)c1ccc2c(c1)CCN2C(C)=O", "note": "(stereo not given)", "activation": "inactive: 7.97%"}, {"smiles": "Cc1cc(NC(=O)CSc2ncc(C(=O)Nc3ccccc3)c(=O)n2C)no1", "activation": "inactive: -9.48%"}, {"smiles": "CCCCOc1ccc(C(=O)NCCc2csc3nc(-c4ccccc4F)nn23)cc1", "activation": "inactive: 29%"}, {"smiles": "CCNC(=O)CC1C(=O)N(c2ccc(F)cc2)C(=O)N1Cc1ccc(C)cc1", "note": "(stereo not given)", "activation": "inactive: 0.37%"}, {"smiles": "CC(=O)OC/C=C(C)/C=C/C=C(C)/C=C/C1=C(C)CCCC1(C)C", "activation": "inactive: 15.5%"}, {"smiles": "Cc1ccc(Cl)cc1N(C)C(=O)c1cc2ccc3cccnc3c2[nH]1", "activation": "inactive: -22.1%"}, {"smiles": "CCOc1ccccc1C(=O)NCC(c1ccc(N(C)C)cc1)N1CCCC1", "note": "(stereo not given)", "activation": "inactive: 3.62%"}, {"smiles": "CS(=O)(=O)N1CCC(N2CCN(Cc3ccc(F)cc3)C(=O)C2=O)CC1", "activation": "inactive: -6.09%"}, {"smiles": "CCn1c(CN2CCN(C)CC2)nc2cc(NC(=O)c3cc(OC)c(OC)c(OC)c3)ccc21", "activation": "inactive: 2.33%"}, {"smiles": "Clc1ccc2c(c1)N=C(N1CCNCC1)c1ccccc1N2", "activation": "inactive: -20.8%"}, {"smiles": "CSc1ccc(CCNC(=O)c2ccc3c(c2)c(C)c(C)n3Cc2ccc(F)cc2)cc1", "activation": "inactive: -13.3%"}, {"smiles": "COCCn1c(CNC(=O)c2cc(OC)c(OC)c(OC)c2)nc2cccnc21", "activation": "inactive: -2.8%"}, {"smiles": "CC(=O)c1cccc(NC(=O)c2cc(-c3ccc4c(c3)OCCO4)on2)c1", "activation": "inactive: -27.7%"}, {"smiles": "CCOC(=O)CNC(=O)Cn1nc(N2CCN(c3ccccc3)CC2)ccc1=O", "activation": "inactive: -8.75%"}, {"smiles": "COc1ccc(CCNC(=O)c2cc3c(=O)[nH]c4ccc(C)cc4c3s2)cc1OC", "activation": "inactive: -9.11%"}, {"smiles": "CCN(CC)C(=O)C1CCCN(c2ncnc3c2nc2n3CCCCC2)C1", "note": "(stereo not given)", "activation": "inactive: 17%"}, {"smiles": "CCOc1ccccc1CNC(=O)CN1C(=O)C2CCCCN2c2ccc(C(=O)N(C)C)cc21", "note": "(stereo not given)", "activation": "inactive: -19.2%"}, {"smiles": "COC(=O)c1ccc(NC(=O)c2c(NCc3ccc(OC)c(OC)c3)sc3c2CCCC3)cc1", "activation": "inactive: -14.7%"}, {"smiles": "COC(=O)c1ccccc1NC(=O)CCCS(=O)(=O)c1nc(-c2ccccc2OC)cc(C(F)(F)F)n1", "activation": "inactive: 13.3%"}, {"smiles": "CCCCCCCCCCCCCCCCCC(=O)O", "activation": "inactive: -2.64%"}, {"smiles": "Cc1cccc(C)c1Nc1c(-c2ccccc2O)nc2ncccn12", "activation": "inactive: -23.2%"}, {"smiles": "Cc1ccccc1CNC(=O)c1ccc2c(c1)N(Cc1ccccc1)CCS2", "activation": "inactive: -35.7%"}, {"smiles": "O=c1oc2ccc3ccccc3c2cc1-c1nnc(Nc2cccc(F)c2)s1", "activation": "inactive: 9.85%"}, {"smiles": "O=C(CCCn1c(=O)c2cccn2c2cccnc21)Nc1ccccc1Br", "activation": "inactive: -8.41%"}, {"smiles": "Cc1ccc(CNC(=O)Cn2cc(C(=O)c3ccc(Cl)cc3)c(=O)c3ccc(C)nc32)cc1", "activation": "inactive: 19.3%"}, {"smiles": "CCOC(=O)c1c(NC(=O)/C=C/c2ccc(OCC)cc2)sc2c1CCC2", "activation": "inactive: 18.7%"}, {"smiles": "CCCCn1c(=O)c2oc3ccccc3c2n(CC(=O)Nc2ccccc2OC)c1=O", "activation": "inactive: -2.49%"}, {"smiles": "CCCCNC(=O)[C@@H](c1ccccc1)N1Cc2ccccc2C1=O", "activation": "inactive: 0.114%"}, {"smiles": "Cc1nn(CC(=O)NCc2ccccc2Br)c(=O)c2cc3occc3n12", "activation": "inactive: -32.2%"}, {"smiles": "Cc1ccc(S(=O)(=O)N2CCCc3cc(NC(=O)c4c(F)cccc4F)ccc32)cc1", "activation": "inactive: -22.4%"}, {"smiles": "CNc1oc(/C=C/c2cc(OC)c(OC)c(OC)c2)nc1C#N", "activation": "inactive: -27.8%"}, {"smiles": "O=C(CCn1c(=O)c2cccn2c2cccnc21)N1CCN(c2ccc(Cl)cc2)CC1", "activation": "inactive: -22.3%"}, {"smiles": "Cc1cccc(OCCCCn2c(C3CC(=O)N(c4ccc(C)cc4C)C3)nc3ccccc32)c1", "note": "(stereo not given)", "activation": "inactive: -6.67%"}, {"smiles": "Cc1ccc(Cl)cc1-n1ncc2c(N3CCC(C(N)=O)CC3)ncnc21", "activation": "inactive: 3.35%"}, {"smiles": "O=C(OCC1CCCO1)c1ccc2c(c1)N(Cc1ccccc1F)C(=O)c1ccccc1S2(=O)=O", "note": "(stereo not given)", "activation": "inactive: -20.6%"}, {"smiles": "CCOc1ccccc1NC(=O)CSc1nccn1Cc1ccc(F)cc1", "activation": "inactive: -21.2%"}, {"smiles": "Cc1cccc(CNC(=O)c2cnc3sc(N4CCOCC4)nn3c2=O)c1", "activation": "inactive: -7.85%"}, {"smiles": "Cc1ccc(-n2c(=O)c3ccc(C(=O)NCc4ccccc4Cl)cc3n(CC(N)=O)c2=O)cc1", "activation": "inactive: 1.17%"}, {"smiles": "Cc1ccccc1C(=O)Nc1ccc(C(=O)OCc2cc(=O)n3c4c(sc3n2)CCCC4)cc1", "activation": "inactive: -15.3%"}, {"smiles": "O=C(O)CCc1ccc(-c2ccc(Cl)cc2)n1-c1cccc(C(F)(F)F)c1", "activation": "inactive: 25.8%"}, {"smiles": "CCn1c(=O)cc(OCC(=O)Nc2ccccc2Cl)c2ccccc21", "activation": "inactive: -16.7%"}, {"smiles": "CCOc1ccc(CCNC(=O)c2nn(-c3ccc(OC)cc3)c(=O)c3c2c2ccccc2n3C)cc1OCC", "activation": "inactive: -23.6%"}, {"smiles": "Cn1c(CN2CCCCC2)nc2cc(NC(=O)c3ccc(Cl)cc3)ccc21", "activation": "inactive: -17.1%"}]}]}
